Measurements as given in the supplement of paper PMC3334620.
In all, about 33,000 sequences were measured (“E-score (-0.5 to 0.5)”: median about -0.016, highest 2% from about 0.32 on). The list shows a part of the results.

Each sequence was assayed against T1, Stp1 (UniProt B3LFK1) (assay: PBM E-score (8-mer binding enrichment) (E-score (-0.5 to 0.5)); higher = stronger / more preferred TF binding; most listed sequences are background and not binding sites). Details: protein concentration: 200 nM; construct: GST-full length.
T1 sequence: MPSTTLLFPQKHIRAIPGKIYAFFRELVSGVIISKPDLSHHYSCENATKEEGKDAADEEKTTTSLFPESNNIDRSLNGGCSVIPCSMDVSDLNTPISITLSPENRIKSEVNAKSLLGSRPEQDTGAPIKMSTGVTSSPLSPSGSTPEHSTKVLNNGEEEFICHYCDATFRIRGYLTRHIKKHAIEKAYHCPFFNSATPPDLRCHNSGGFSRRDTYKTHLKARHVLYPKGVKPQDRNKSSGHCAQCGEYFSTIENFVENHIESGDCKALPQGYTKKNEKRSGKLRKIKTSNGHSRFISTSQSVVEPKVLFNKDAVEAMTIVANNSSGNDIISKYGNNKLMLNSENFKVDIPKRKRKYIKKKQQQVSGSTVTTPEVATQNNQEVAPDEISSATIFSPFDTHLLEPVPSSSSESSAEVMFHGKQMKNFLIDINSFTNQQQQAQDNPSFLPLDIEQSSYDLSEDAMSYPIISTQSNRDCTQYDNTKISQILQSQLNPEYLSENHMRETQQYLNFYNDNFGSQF
Protocol: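 Universal 'all 10-mer' protein binding microarrays (Agilent AMADID 015681) probed with GST-tagged S. cerevisiae TFs (full-length or DBD) made by in vitro transcription/translation (PURExpress), about 100-200 nM. Bound TF was detected with fluorescent anti-GST. Each ungapped 8-mer (which stands for itself and its reverse complement) is scored by the PBM enrichment score (E-score), a modified Wilcoxon-Mann-Whitney statistic from -0.5 to +0.5, computed with the Universal PBM Analysis Suite. Scale: above 0.35 generally sequence-specific binding.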

Row | Sequence | PBM E-score
1 | GGGAGAAC | -0.151
2 | GATTGCTA | 0.0147
3 | AGCCCTTG | -0.131
4 | AACCCTGT | -0.0655
5 | GTGTGAAC | -0.0424
6 | TGGGCACA | 0.135
7 | ATGGGCAA | -0.126
8 | AAGGTAAC | 0.221
9 | ACTTGCAA | 0.181
10 | TCAGTTCA | -0.078
11 | ATTGTTTG | 0.202
12 | GCTGAATA | -0.0632
13 | AATGGTCA | -0.0635
14 | TCGACAGA | -0.0398
15 | CGCGACCC | -0.1
16 | CAATTCTG | 0.0916
17 | TGCTAAAA | 0.0719
18 | GATCGGCA | 0.135
19 | AAAAAAGC | 0.114
20 | CCGATGGC | -0.0258
21 | CACTATCC | -0.135
22 | ACTACTCG | 0.0185
23 | GATAGCGC | 0.0676
24 | AGATGGCC | -0.132
25 | CCGAAGGC | -0.112

Row | Sequence | PBM E-score
26 | GCATTAAA | 0.244
27 | AACGCAAA | 0.174
28 | ATAACGCG | 0.0829
29 | CGGCGTAC | 0.36
30 | ATCTTAGC | -0.0777
31 | AGAAGTGA | -0.0301
32 | ACAAAAAT | 0.178
33 | AACACCAT | 0.12
34 | CCACTGCC | 0.0034
35 | CTCAAGAA | -0.0307
36 | CATGGAAC | -0.116
37 | CTTCTAGC | -0.0527
38 | GGATGAAA | 0.0759
39 | AGCAGTTA | -0.083
40 | CTTCTCTA | -0.0825
41 | AATACCTC | 0.0466
42 | ACTAAGGG | -0.147
43 | AGAGTACC | -0.107
44 | AAGCCGCC | 0.177
45 | GGTCATTA | -0.256
46 | AACATATT | 0.0606
47 | ACCCGCAG | 0.0741
48 | AAACCTAC | -0.0505
49 | CACCGTGA | -0.114
50 | ACGCCGCT | 0.423

Row | Sequence | PBM E-score
51 | ATGATCAC | 0.0539
52 | ACGCAAGC | -0.126
53 | TCTTCTAA | 0.185
54 | CATAGTCC | -0.0737
55 | GATCTGCA | -0.197
56 | TAATTTAA | 0.174
57 | AGAACCAT | 0.0663
58 | CAATTCTA | -0.00449
59 | ACCTGCAA | -0.152
60 | CGCCAAGA | -0.132
61 | ATACATGA | -0.0755
62 | GCCGCTAA | 0.313
63 | ATTCATGG | 0.0335
64 | AGCTGTAC | -0.0972
65 | CATTGAAA | 0.149
66 | CCCATGGA | -0.183
67 | CCGCCTCC | -0.0913
68 | GCACCACA | 0.151
69 | TAACGAGA | -0.12
70 | AGCACCAG | -0.204
71 | AAAACCAT | 0.0744
72 | AGATGTGC | -0.0497
73 | CGGTGGCA | -0.0169
74 | TTATTGAA | 0.0619
75 | AATAGGTA | -0.0154

Row | Sequence | PBM E-score
76 | AAGTTCTA | -0.0481
77 | CGACCTTA | 0.0223
78 | ACACTGGG | -0.235
79 | ATATCTTA | 0.174
80 | TCATCTCA | -0.0321
81 | CCGATGTC | -0.131
82 | CAGCTAAC | -0.171
83 | ACGCCAGG | -0.14
84 | AACTTACT | -0.182
85 | GGAATGCC | 0.242
86 | GAGTCACC | -0.144
87 | CGCTTGTA | 0.0756
88 | AAAGGGAG | -0.205
89 | CTATTGTA | 0.228
90 | GCCGGCAA | 0.106
91 | ACCTAGGA | -0.124
92 | AGAAGACT | -0.15
93 | ACGTCCAG | -0.253
94 | ATAATTTA | 0.199
95 | GCTCATTA | 0.0806
96 | GTTGGAAA | 0.167
97 | ATTACGGC | 0.341
98 | TACGTTAA | -0.048
99 | AGAATCTC | -0.0977
100 | CGTACCCA | -0.0511

Row | Sequence | PBM E-score
101 | AGTGCGAA | -0.103
102 | CTAGCCAA | 0.0204
103 | ATCCCTCA | -0.107
104 | AATACTCT | 0.146
105 | CATTTGCG | 0.203
106 | AGGCATAT | 0.0894
107 | AAACAGAG | -0.0163
108 | ATACCTTG | 0.0388
109 | ATAGGAAC | 0.00431
110 | GGTATACA | -0.0289
111 | CCGGCCCG | -0.15
112 | CGACCGTA | -0.012
113 | CCACCCGA | -0.144
114 | ACGATTGA | 0.0149
115 | CAGAGTTA | 0.0347
116 | GAGCCCTC | -0.0998
117 | CTTCAAGC | 0.0107
118 | GTGCTATA | 0.0304
119 | GGGTTCCA | -0.286
120 | ACTGCAGG | -0.194
121 | ATGATAAA | 0.0859
122 | CATCTAGG | -0.262
123 | CTTCGTAA | 0.0463
124 | CCTAATAA | 0.0583
125 | CCCCAAAA | -0.0767

Row | Sequence | PBM E-score
126 | ATATACGG | 0.282
127 | GGATACGA | -0.0152
128 | ATAAGCCC | -0.243
129 | CAGGCCTG | -0.158
130 | CGCAGGGA | -0.185
131 | ACTCGATG | -0.0609
132 | ACTGGGTG | -0.267
133 | AAAACCCA | 0.124
134 | GCTCGCAA | 0.0384
135 | ACTCTTTC | -0.15
136 | CCTTCTGA | -0.0316
137 | ATCTAGAA | 0.07
138 | CCTCAGGA | -0.191
139 | ATATCAAA | 0.167
140 | TAGATCTA | 0.0708
141 | AGCCGTTC | 0.424
142 | GGTCGGAC | -0.175
143 | CGCAAGCG | -0.134
144 | TACCCCTA | -0.273
145 | AGTGTAGA | -0.0893
146 | GCTACCCA | -0.203
147 | AACTGGGA | -0.088
148 | AGAGGGTC | -0.317
149 | AAAAAGGG | -0.155
150 | AGGGAAAA | 0.0119

Row | Sequence | PBM E-score
151 | GACAGAGC | -0.227
152 | CAACACAC | 0.0261
153 | AAGTCGTC | -0.255
154 | CTGCATTC | -0.111
155 | ACTAGACC | -0.0753
156 | AACTCGCC | 0.112
157 | ATCGGTGC | 0.0436
158 | AATCATTC | 0.146
159 | ACACAACG | 0.167
160 | ATACAAAG | 0.115
161 | ACTTACCG | 0.172
162 | GGAGGCAC | 0.148
163 | CACCTGTA | 0.0319
164 | ATCGCTAA | -0.00855
165 | GCACACGA | 0.177
166 | CGAGGGCA | 0.124
167 | ACGTACGG | 0.292
168 | ACGCATGG | 0.0452
169 | GATATCGC | 0.108
170 | CTGCTAAG | -0.177
171 | GAATAGAA | 0.205
172 | AGACCGAA | 0.036
